Results published in US12551573B2, “Compositions and methods for the targeting of PCSK9” (Scribe Therapeutics Inc., priority 2022, dated 2026).
Substitutions are numbered along the chain they refer to. Read-outs that look alike come from different tables or passages of the source.

B1: DOMAIN_15254 (protein, listed as Callithrix jacchus)
chain: PQESVAFDDVAVYFTKKEWAIMVPDQRALYRDVMLENYEAVAFVVPPTSKPALISHLEQGKEPCFTQPQGVLSRRDWRAGF
B2: DOMAIN_15267 (protein)
chain: SQVSVTFEDVAVLFTRDEWRKLAPPQRNLYQDVMLENYSNLVSLGLLFPKPKVISLLQQGEDPWKVEKENLGGSSLGWKNS
modifications: Ovis aries
B3: DOMAIN_23723 (protein, listed as Carlito syrichta)
chain: SQGLLTFKDVAIEFSPEEWEYLDPPQRMLYRTVMLENHRNLVFLGLAVSKPDLIMCLEQRREPWNVKSHSKLAKSPAVTSH
B4: DOMAIN_15278 (protein, listed as Callithrix jacchus)
chain: RPRALKFVDVAVYFSSEEWGCLRPAQRALYRDVMRETYGHLGALGFPGPKPALISWMEQESEAWSSAAQDPENGESLGGAR
B5: DOMAIN_15352 (protein)
chain: B4 chain with R1K, R3G, L5V, K6S, V8A, S16P, A28S, N73K, R81Q
modifications: Cebus imitator
B6: DOMAIN_15354 (protein, listed as Tursiops truncatus)
chain: PQKSVTFEDVAVYFTQTEWDGLSPAQRALYRDVMLENYGNVASLGFPLLKPTVISQLEGGGELEGPSPLASGTGTGPQGLW
B7: DOMAIN_15360 (protein, listed as Neophocaena asiaeorientalis)
chain: QAEVTFEDVAVLLSREEWGRLGPVQKGLYRDVMLETYRNLVSLGGGPAGPKPEVITQLERGDEPWVPDVQGRERLTIDGSA
B8: DOMAIN_15363 (protein, listed as Pongo sp.)
chain: SKAPVTFGDLAIYFSQEEWEWLSPIQKDLYEDVMLENYRNLVSLGLSFRRPNVITLLEKGKAPWMVEPVRRRRAPDSGSKC
B9: DOMAIN_15391 (protein, listed as Leptonychotes weddellii)
chain: B6 chain with P47S, T52A, G60A, E64G, A70V, S71D, G74E
B10: DOMAIN_15419 (protein, listed as Rhinopithecus roxellana)
chain: LKGLVTFEDVAVEFTQEEWALLDPAQRTLYRDVMLENFRNLASLGNQVDKPGLISQLEQEDKVMTEERGIFPGACPDVENP
B11: DOMAIN_15447 (protein, listed as Rhinopithecus roxellana)
chain: YQTPVSFKDVVVGFTQEEWHRLSPAQRALYRDVMLETYSNLVSVGYEGTKPDVILRLEQEEAPWIGGAARPGCHCWEDIWQ
B12: DOMAIN_15527 (protein, listed as Balaenoptera acutorostrata)
chain: B7 chain with G45A, A48T, P67L, R74G, L75P
B13: DOMAIN_15575 (protein, listed as Callithrix jacchus)
chain: IQGLLTFGDVAVAFTRIEWRHLDAAQRALYRDVMLENYGNLVSVGLLSSKPKLIAQLEQGAEPWMEVREAPSGTRAVPDYW
B14: DOMAIN_24458 (protein, listed as Lynx pardinus)
chain: FQGSLSFEDVTVGFSQEEWQHLDPAQRTLYRDVMLENYSHLVAVGCCVPKPDVIFRLEQGQQPWLVEEESLDQIWPEVCRV
B15: DOMAIN_15577 (protein, listed as Callithrix jacchus)
chain: FQELVTFRDVAIDFSGQEWEYLDPHQRDLYRDVMLENYRNLVSLGHSISKPVLVDLLEQGKEPWMILREETQFPGKEDRGH
B16: DOMAIN_15586 (protein, listed as Callorhinus ursinus)
chain: IQEPVTFKDVAVDFTQEEWGRLDPVQRTLYRDVMLETYRHLLSVGNQIAKPEVISLLEQGEEPWSVEQAYPQSTCPAVDTE
B17: DOMAIN_15603 (protein)
chain: EPGAVSFGDVAVYFSREEWGCLRPAQRALYRDVMRETYSHLGALGVGGSKPALISWMEEEAELWVPAAQDPEVAKCPTEAD
modifications: Cebus imitator
B18: DOMAIN_15605 (protein)
chain: ESVAFEDVAVYFTQNQWGSLDPAQRALYREVMLENYANVASLVAFPFPKPALISHLEKGEAPWGPDPWDAEIPSGISQGGE
modifications: Cebus imitator
B19: DOMAIN_15634 (protein)
chain: B7 chain with G45A, L75P, T76N
modifications: Delphinapterus leucas
B20: DOMAIN_15636 (protein)
chain: SLGSVTFTDVAIDFSQDEWEWLNLAQRSLYKKVMLENYRNLVSVGLCISKPVVISLLEQEKDPWVIKGGMNRGLCPDLECV
modifications: Pan troglodytes
B21: DOMAIN_15687 (protein)
chain: SQGHVTFEDIAVYFSQEEWGLLDEAQRCLYHDVMLENFSLMTSVAGLSQNNHKDSCLQWKVPVSMNNVAQCSPDEVHYTPM
modifications: Cebus imitator
B22: DOMAIN_24663 (protein, listed as Myotis brandtii)
chain: SLALVTFKDVLVNFTREEWKLLDAAQQVMYRDVMLENYRNLVSLGHRLPKPDVILQLEKGEEPWLVERGTHQDAHPDWDTA
B23: DOMAIN_15693 (protein, listed as Macaca mulatta)
chain: PQGLVTFGDVAVDFSQEEWEWLNPNQRTLYRKVMLENYKNLASLGLCVSKPDVISSLEQGKEPWTVKRKMTRAWCPDLKIV
B24: DOMAIN_15699 (protein, listed as Bos taurus)
chain: SQGRLTFQDVAIDFTQEEWECLDLGQRELYRDVMLENYGNLASLGLVISKPDLVTFLEQMKDPWDTRRMETPAVHPAVSSH
B25: DOMAIN_15753 (protein)
chain: PRESVTFEDVAVNFSHEEWQCLTHSQRHLYKDVMLENYGNMVSLGFSFSKPPLISCLEQGAESYVQDQQDWEFLSCSYPVS
modifications: Ovis aries
B26: DOMAIN_15759 (protein)
chain: QAEVTFEDVAVFLSQEEWGLLGPAQKGLYREVMLETYRNLVSLGAGLAGPKPEVIVHLERGDELWVLDMRGAEQPSVDGSA
modifications: Ovis aries
B27: DOMAIN_15814 (protein, listed as Macaca mulatta)
chain: SHELLTFKDISVDFTQEEWGQLAPAYQNLYREVMLENYSNLVSVAGYQLSKPSVISQLEKGEEPWMAEKEGPGDPSSDLKS
B28: DOMAIN_15823 (protein)
chain: TSQSPLTFGDVAVEFSGEEWAWLDSAQRSLHRSVMLENYRNLASLGKVSKPEMISSLEQRKEPWAVTRKTTGGECADSQTL
modifications: Ovis aries
B29: DOMAIN_15834 (protein, listed as Otolemur garnettii)
chain: SQGLVTFGDVAVDFSQEEWAWLSTTQRTLYRKVTLENYRNLASLGLCVSKPAVISLLEQGKEPWIVKRKMTRGGCPDLNAV
B30: DOMAIN_25289 (protein, listed as Ursus maritimus)
chain: LQRLLTFGDVAIEFSQEEWRCLSHTQRELYRDVMLENYRHLLFLGLIVSKPDLVSLLEQRKEPWDVKRKKTVVFDPGRWE
B31: DOMAIN_15931 (protein)
chain: HQEVVTFEDVAVYFTQTEWAGLSPAQRALYRSVMLEIYGNLTSLGYPVPKPELVSLLERGDLPVGLETQDNPPAQGTRDIY
modifications: Ovis aries
B32: DOMAIN_15940 (protein, listed as Enhydra lutris)
chain: FEELVTFEDVAVYFSENEWTSLAPTQRVLYRDVMLENYGAVASLAAFPFPKPALISQLERGEAPWCKAPQGALDGEGPRGI
B33: DOMAIN_16009 (protein, listed as Zalophus californianus)
chain: AYGSLSFGEVAISFSQEEWECLDPAQRALYRDVMLETYSNLVSLAGSSISKPDVITLLEQEKEPWVVVRRETSRWYPDLES
B34: DOMAIN_16011 (protein)
chain: PQVLVSFEEVAVLLSQEEWGHLGPAQKRLYRDVMLETYGNLVSLGLQGSKPDVISKLEQGEEPWAPHSPRIEGSWIWRRRR
modifications: Delphinapterus leucas
B35: DOMAIN_16017 (protein)
chain: PLTFEDVALYFSEEEWLIMDPNQRTLYLDVMQELYENVTSLGLKLKNDTGNDPPVSLPTLEIQPSGCEVVRKATMKDAETT
modifications: Ovis aries
B36: DOMAIN_16023 (protein, listed as Rhinopithecus bieti)
chain: AHALVTFRDVAIDFSQKEWECLDTTQRKLYRDVMLENYSNLVSLGYSGSKPDVITLLEQGKEPCVAVRDVTGTQYPGLLSR
B37: DOMAIN_25379 (protein, listed as Sapajus apella)
chain: ALRSVMFSDISIDFSPEEWDCLDLEQKDLYRDVMLENYSNLVSLGCFISKPDVISLLEQGKEPWKVVRKRRGQCPDLQTKY

Test system: HBEGF locus
Assay type: cell-based, human
Conditions: high-throughput screen of dXR repression of the HBEGF gene
[1] = abundance of each domain in the library before and after diphtheria toxin selection, HEK293T cells
[2] = change in abundance of each domain in the library before and after diphtheria toxin selection

Molecule | Log2 (fold change) [1] | Log2 (fold change) [2]
B1 | 3.5159 | 
B2 | 2.8528 | 
B3 |  | 3.5301
B4 | 3.2523 | 
B5 | 3.0832 | 
B6 | 3.5099 | 
B7 | 3.2575 | 
B8 | 4.3121 | 
B9 | 3.9053 | 
B10 | 2.6943 | 
B11 | 3.1112 | 
B12 | 3.0354 | 
B13 | 2.594 | 
B14 |  | 3.4012
B15 | 2.4456 | 
B16 | 2.6157 | 
B17 | 3.5111 | 
B18 | 3.8196 | 
B19 | 3.3574 | 

Molecule | Log2 (fold change) [1] | Log2 (fold change) [2]
B20 | 2.2086 | 
B21 | 2.5362 | 
B22 |  | 2.9806
B23 | 3.8571 | 
B24 | 3.5255 | 
B25 | 3.1699 | 
B26 | 3.1884 | 
B27 | 3.9503 | 
B28 | 2.8458 | 
B29 | 3.7629 | 
B30 |  | 3.4113
B31 | 3.0861 | 
B32 | 2.8684 | 
B33 | 3.2738 | 
B34 | 4.3363 | 
B35 | 2.6715 | 
B36 | 2.2831 | 
B37 |  | 3.5892
